Test results taken from PubChem BioAssay (NCI).
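Exposure lasted 48 hours, with cells grown in 96-well plates and compounds tested at five concentrations. GI50 = concentration required for 50% inhibition of growth.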 For part of its entries the source gives two or more results. The list is limited to them. The source may hold further records. For some assays here: A record mostly stands for its own series of concentrations, not given here; some values may only mark the edge of a range. For some assays here: The values listed for one entry are repeated measurements across runs, samples, wells, individuals or studies. Brackets tell where a record comes from. The letters are not those of the source and start again with each entry.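 Definition used: TGI = concentration required for complete inhibition of growth.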

Key:
Test in all cases: inhibition of tumour cell growth, NCI panel, 48 h
SNB-19 CNS = test system: SNB-19 CNS
HL-60(TB) leukemia = test system: HL-60(TB) leukemia
DU-145 prostate = test system: DU-145 prostate
SR leukemia = test system: SR leukemia
ACHN renal = test system: ACHN renal
EKVX NSCLC = test system: EKVX NSCLC
OVCAR-8 ovarian = test system: OVCAR-8 ovarian
KM12 colon = test system: KM12 colon
RXF 393 renal = test system: RXF 393 renal
MDA-MB-231 breast = test system: MDA-MB-231 breast
NCI-H522 lung = test system: NCI-H522 lung
HCC-2998 colon = test system: HCC-2998 colon
SF-268 CNS = test system: SF-268 CNS
SNB-75 CNS = test system: SNB-75 CNS
SF-295 CNS = test system: SF-295 CNS
A498 renal = test system: A498 renal
COLO 205 colon = test system: COLO 205 colon
HCT-116 colon = test system: HCT-116 colon
MCF7 breast = test system: MCF7 breast

CC(C)NCCCNc1c2ccccc2nc2cccc([N+](=O)[O-])c12
TGI (SNB-19 CNS): 1.02 µM and 55.6 nM
TGI (HL-60(TB) leukemia): 43.2 nM and > 100 µM
TGI (DU-145 prostate): 39.9 nM and 13.4 µM
TGI (SR leukemia): 1.28 nM and > 100 µM

C#CC(F)(F)[C@]1(O)CC[C@H]2[C@@H]3CCC4=CC(=O)CCC4=C3[C@@H](c3ccc(C4CC4)cc3)C[C@@]21C
GI50 (ACHN renal): 20.9 nM [sample A, mean of 3 tests] and 1.33 µM [sample B, mean of 2 tests]
TGI (ACHN renal): 483 nM [sample A, mean of 3 tests] and > 28.5 µM [sample B, mean of 2 tests]
TGI (SNB-19 CNS): 5.02 µM [sample A, mean of 2 tests] and > 100 µM [sample B, mean of 2 tests]
GI50 (EKVX NSCLC): 382 nM [sample A, mean of 3 tests] and < 13.6 nM [sample B, mean of 2 tests]
TGI (EKVX NSCLC): 1.73 µM [sample A, mean of 3 tests] and < 22.5 nM [sample B, mean of 2 tests]
GI50 (OVCAR-8 ovarian): 152 nM [sample A, mean of 3 tests] and 2 µM [sample B, mean of 2 tests]
TGI (OVCAR-8 ovarian): 4.32 µM [sample A, mean of 3 tests] and > 61 µM [sample B, mean of 2 tests]
TGI (KM12 colon): 99.8 nM [sample A, mean of 3 tests] and 1.16 µM [sample B, mean of 2 tests]
GI50 (RXF 393 renal): 114 nM [sample A, mean of 3 tests] and 1.22 µM [sample B, mean of 2 tests]
GI50 (MDA-MB-231 breast): 17.8 nM [sample A, mean of 2 tests] and 993 nM [sample B, mean of 2 tests]
TGI (MDA-MB-231 breast): 45.2 nM [sample A, mean of 2 tests] and 4.69 µM [sample B, mean of 2 tests]
GI50 (SR leukemia): 21.5 nM [sample A, 1 test] and 295 nM [sample B, 1 test]
TGI (SR leukemia): 107 nM [sample A, 1 test] and 3.03 µM [sample B, 1 test]

O=c1cc(/C=C/c2ccc(O)c(O)c2)cc(/C=C/c2ccc(O)c(O)c2)o1
TGI (NCI-H522 lung): 50 µM and 4.29 µM

COC(=O)N[C@H]1C=C[C@@H]2/C=C(C)/C=C/[C@@H](C)[C@H]([C@H](C)[C@H](O)[C@@H](C)NC(C)=O)OC(=O)/C=C/C=C(C)\C=C\[C@]2(C)C1
GI50 (EKVX NSCLC): 39 nM and 738 nM
GI50 (HCC-2998 colon): 24.3 nM and 7.06 µM
GI50 (DU-145 prostate): 311 nM and 20.1 nM
GI50 (SF-268 CNS): 696 nM and 36.8 nM
GI50 (SNB-75 CNS): 2.35 nM and 26.8 nM
TGI (SNB-75 CNS): 41.1 nM and 3.22 µM
TGI (SF-295 CNS): 39.6 nM and 7.23 µM
TGI (MDA-MB-231 breast): 7.1 nM and 5.5 µM
TGI (A498 renal): 650 nM and 11.4 µM

CCC(C)C1NC(=O)C(NC(=O)C(CC(C)C)N(C)C(=O)[C@@H]2C=CCN2C(=O)[C@H](C)O)C(C)OC(=O)[C@H](Cc2ccc(OC)cc2)N(C)C(=O)[C@@H]2CCCN2C(=O)[C@H](CC(C)C)NC(=O)C(C)C(=O)[C@H](C(C)C)OC(=O)CC1O (some centres not stated)
TGI (COLO 205 colon): 3 nM and > 100 µM
TGI (HCT-116 colon): 12 nM and > 100 µM
TGI (HL-60(TB) leukemia): 32.2 nM and > 100 µM
TGI (MCF7 breast): 23.1 nM and > 100 µM

O=C(NNC(=O)c1ccccc1S)c1ccccc1S
TGI (NCI-H522 lung): 1.06 µM and > 100 µM
